Source: paper PMC4336329 (PLoS ONE, 2015)
Out of some 310,000 compounds screened, about 14,000 (4.5%) showed an effect of 50% or more. The effect is printed as a negative number. The list shows a part of the results.

Target: human ether-à-go-go-related gene (hERG) potassium channel (human, UniProt Q12809)
Assay: primary screen, population patch clamp on CHO cells stably expressing hERG
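Note: peak tail current of the secondary pulse compared with the same well before compound.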

Sequence of human ether-à-go-go-related gene (hERG) potassium channel (Q12809 whole entry, looked up): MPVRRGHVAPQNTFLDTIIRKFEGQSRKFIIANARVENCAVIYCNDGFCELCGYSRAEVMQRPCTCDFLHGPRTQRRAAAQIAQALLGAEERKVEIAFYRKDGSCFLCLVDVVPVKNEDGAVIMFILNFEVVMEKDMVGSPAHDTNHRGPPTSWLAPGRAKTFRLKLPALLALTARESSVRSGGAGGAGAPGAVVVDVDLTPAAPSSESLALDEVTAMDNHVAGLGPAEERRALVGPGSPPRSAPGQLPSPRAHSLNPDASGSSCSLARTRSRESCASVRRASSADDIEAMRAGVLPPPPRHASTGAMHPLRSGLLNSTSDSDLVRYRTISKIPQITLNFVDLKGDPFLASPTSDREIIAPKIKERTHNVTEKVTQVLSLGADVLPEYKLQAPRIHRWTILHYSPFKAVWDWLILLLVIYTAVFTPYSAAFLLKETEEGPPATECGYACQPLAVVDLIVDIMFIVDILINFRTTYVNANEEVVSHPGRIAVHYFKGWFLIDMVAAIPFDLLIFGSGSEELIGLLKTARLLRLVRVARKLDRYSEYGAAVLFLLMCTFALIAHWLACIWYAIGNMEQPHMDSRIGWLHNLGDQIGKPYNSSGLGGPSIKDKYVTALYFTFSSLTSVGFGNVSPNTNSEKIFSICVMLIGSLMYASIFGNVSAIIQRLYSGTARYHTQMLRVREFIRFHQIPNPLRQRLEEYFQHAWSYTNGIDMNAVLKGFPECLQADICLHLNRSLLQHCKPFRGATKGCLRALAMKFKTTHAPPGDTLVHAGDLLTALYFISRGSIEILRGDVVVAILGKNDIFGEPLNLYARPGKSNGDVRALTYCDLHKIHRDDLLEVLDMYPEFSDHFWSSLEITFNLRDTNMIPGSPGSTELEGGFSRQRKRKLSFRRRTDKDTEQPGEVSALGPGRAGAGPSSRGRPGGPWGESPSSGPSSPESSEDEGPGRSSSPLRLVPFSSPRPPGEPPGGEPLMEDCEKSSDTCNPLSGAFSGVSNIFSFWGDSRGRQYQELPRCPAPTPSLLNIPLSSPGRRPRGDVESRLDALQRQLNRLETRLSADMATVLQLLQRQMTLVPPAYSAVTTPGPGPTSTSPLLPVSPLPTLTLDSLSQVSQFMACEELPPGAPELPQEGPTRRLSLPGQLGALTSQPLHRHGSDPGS

Row | SMILES | hERG current change (%, negative = inhibition) at 10uM [%]
1 | Cc1ccc(OCC(=O)NNC(=O)Cn2c(=O)cnc3ccccc32)cc1 | -3.16
2 | CCC(=NCc1cc(OC)cc(OC)c1)c1c(O)n(C2CCCCC2)c(=O)[nH]c1=O | 15.3
3 | O=C(/C=C/c1ccco1)NC(=S)Nc1ccc(C(=O)O)cc1 | 22.1
4 | CC(C)CC(c1nnnn1Cc1cccs1)N1CCN(c2nc3ccccc3s2)CC1 (stereo not shown) | 0.473
5 | CNS(=O)(=O)c1cc(Cl)ccc1Sc1ccccc1C(=O)O | 14.3
6 | COC(C[C@H]1O[C@H]1C(=O)[C@H](C)OCc1ccccc1)OC | 14.5
7 | NC(=O)N\N=C/C=C/C=C/c1ccc(F)cc1 | 16.1
8 | Cc1nn(C)cc1S(=O)(=O)N1CCN(c2cccc(Cl)c2)CC1 | 8.55
9 | Cc1ccc(NC(=O)CNCc2ccccc2)cc1Br.Cl | -26.1
10 | CC(CCn1cccn1)NC(=O)CCc1nnc(C2CCCCC2)o1 (stereo not shown) | 23.8
11 | CC(C)CC1(C(=O)O)NC(c2ccccc2O)C2C(=O)N(C(C)C)C(=O)C21 (stereo not shown) | 23.8
12 | O=C(COc1ccccc1)Nc1cc2c3c(c1)CC(=O)N3CCC2 | -36
13 | COc1ccc(N=CC2=C(O)CCCC2=O)cc1 | 5.25
14 | O=C(NC(N1CCCC1)C(Cl)(Cl)Cl)c1ccccc1 (stereo not shown) | 12.6
15 | Cc1ccc(NC(=O)CCNS(=O)(=O)c2ccc3c(c2)CCC(=O)N3)cc1C | 19.7
16 | COc1cc2nc(CN3CCN(S(=O)(=O)c4c(F)cccc4F)CC3)[nH]c(=O)c2cc1OC | -33.4
17 | CCOc1ccc(NS(=O)(=O)c2cc3c4c(c2)C(C)C(=O)N4CCC3)cc1 (stereo not shown) | -0.0129
18 | O=C(O)Cc1ccc(NC(=O)c2ccc(NC(=O)c3ccco3)cc2)cc1 | 18.9
19 | CC(=O)Nc1nc(C)c(CCCOc2ccc([N+](=O)[O-])cc2)c(=O)[nH]1 | 0.762
20 | COc1ccc(NC(=O)CN2CCC(C(N)=O)(N3CCCCC3)CC2)cc1 | 0.362
21 | C[C@@H](NC(=O)c1nc[nH]c1C(=O)N1CCN(c2ccccc2)CC1)c1ccccc1 | 4.6
22 | Cc1cccc(OCCOC(=O)C2CCN(S(=O)(=O)c3cccs3)CC2)c1 | 6.58
23 | S=C(Nc1ccccc1)Nc1ccc(OCc2ccccc2)cc1 | -0.702
24 | CCNc1nc(SC(C)C(=O)Nc2ccccc2)nc(N(C)C)n1 (stereo not shown) | 11.8
25 | COC(=O)c1cccc(C23CC4(C2)[C@H](CN(Cc2ccc(-c5ccccc5)cc2)[C@@H]4c2ccccc2)C3c2ccc(C(F)(F)F)cc2)c1 (stereo partly shown) | 16.5
26 | Cc1ccc(Cn2cc(C=O)c(-c3ccc(C)cc3)n2)cc1 | 9.59
27 | Cc1nc2sc(-c3ccccc3)cc2c(=O)[nH]1 | 12.6
28 | COc1ccccc1CN(C)C(=O)c1ccc(COc2ccccc2)cc1 | 6.77

Row | SMILES | hERG current change (%, negative = inhibition) at 10uM [%]
29 | CCN(CC)CCN(C)Cc1nc(C(c2ccccc2)c2ccccc2)no1 | -57.7
30 | CCOc1cc(C(=S)N2CCCC2)ccc1O | 16.7
31 | CCOc1ccc(-n2nc3c(Cl)nnc(C)c3c2C)cc1 | -10.7
32 | CCOc1ccc(OCCNCc2ccc(OC(C)C(=O)N(C)C)c(OCC)c2)cc1.O=C(O)C(=O)O (stereo not shown) | -9.05
33 | CCc1cccc2c(C(=O)CSc3nncn3-c3ccccc3OC)c[nH]c12 | -11.4
34 | COC(=O)c1[nH]c2cccc(OC)c2c1NC(=O)CN(C)CC1OCCO1 | -12.5
35 | Cc1nc(NCCc2ccc(F)cc2)c2nnn(Cc3ccccc3)c2n1 | -4.32
36 | COc1ccccc1-c1ccc(=O)n(CC(=O)NCc2ccc3c(c2)OCO3)n1 | -3.49
37 | CCN(CC)C(=S)SCC(=O)Nc1nc(=O)c2ccccc2s1 | 28.8
38 | COC(=O)c1ccccc1OCC(=O)NC1CCCCC1 | -21.3
39 | CCc1noc(N)c1C(=O)Nc1ccc(Cl)cc1 | -31.3
40 | CC(=O)NC1C(OC(=O)Cc2ccccc2)OC(COC(C)=O)C(OC(C)=O)C1OC(C)=O (stereo not shown) | -0.962
41 | CN(CC(=O)NCc1cccnc1)S(=O)(=O)c1ccc(F)cc1 | 21.3
42 | CC(C)N(Cc1nc(-c2ccccc2)no1)C(=O)CCCN1C(=O)c2ccccc2C1=O | -43.8
43 | Cc1ccc(S(=O)(=O)N/N=C/c2ccc(OCC(=O)N3CCOCC3)cc2)cc1 | -6.71
44 | O=P(c1cccs1)(c1cccs1)c1cccs1 | -12
45 | CCOc1ccccc1/C=N/NC(=O)Cc1csc(Nc2cccc(C(F)(F)F)c2)n1 | 4.05
46 | CC(C)(C)NC(=O)C1CN(S(=O)(=O)c2ccccc2)CCN1S(=O)(=O)c1ccccc1 (stereo not shown) | -7.3
47 | COCc1c(C(=O)N2CCN(CCOc3ccccc3)CC2)oc2ccccc12 | -63.5
48 | COc1ccccc1NC(=O)Nc1nc(CC(=O)Nc2ccccc2F)cs1 | 14.9
49 | O=C(O)c1ccc(/C=C2\COc3ccccc3C2=O)cc1 | -20.5
50 | O=C(Nc1nc(-c2cccnc2)cs1)c1ccccc1[N+](=O)[O-] | 8.67
51 | CCC1Oc2ccc(C)cc2N(CC(=O)NCCCN2CCCCC2CC)C1=O (stereo not shown) | -7.91
52 | CC1(C)C2CCC1(C)C(OC(=O)CSc1nc(N)cc(=O)[nH]1)C2 (stereo not shown) | -0.25
53 | O=C(NCc1n[nH]c(=S)n1-c1ccc(F)cc1)c1ccc(S(=O)(=O)N2CCOCC2)cc1 | 23.4
54 | Cc1cc(C)c2c(=O)[nH]c(SCc3ccccc3C)nc2n1 | 8.96
55 | COc1ccccc1/C=C/CN1CCC(n2nccc2NC(=O)C2CC2)CC1 | -59.1
